Laboratory results from the supplement of paper PMC3334620.
Whole data set: some 33,000 sequences, median “E-score (-0.5 to 0.5)” near -0.011, cut for the highest 2% near 0.28. This is one part of the list.

Target: T1, Gcr1 (UniProt P07261)
T1 sequence: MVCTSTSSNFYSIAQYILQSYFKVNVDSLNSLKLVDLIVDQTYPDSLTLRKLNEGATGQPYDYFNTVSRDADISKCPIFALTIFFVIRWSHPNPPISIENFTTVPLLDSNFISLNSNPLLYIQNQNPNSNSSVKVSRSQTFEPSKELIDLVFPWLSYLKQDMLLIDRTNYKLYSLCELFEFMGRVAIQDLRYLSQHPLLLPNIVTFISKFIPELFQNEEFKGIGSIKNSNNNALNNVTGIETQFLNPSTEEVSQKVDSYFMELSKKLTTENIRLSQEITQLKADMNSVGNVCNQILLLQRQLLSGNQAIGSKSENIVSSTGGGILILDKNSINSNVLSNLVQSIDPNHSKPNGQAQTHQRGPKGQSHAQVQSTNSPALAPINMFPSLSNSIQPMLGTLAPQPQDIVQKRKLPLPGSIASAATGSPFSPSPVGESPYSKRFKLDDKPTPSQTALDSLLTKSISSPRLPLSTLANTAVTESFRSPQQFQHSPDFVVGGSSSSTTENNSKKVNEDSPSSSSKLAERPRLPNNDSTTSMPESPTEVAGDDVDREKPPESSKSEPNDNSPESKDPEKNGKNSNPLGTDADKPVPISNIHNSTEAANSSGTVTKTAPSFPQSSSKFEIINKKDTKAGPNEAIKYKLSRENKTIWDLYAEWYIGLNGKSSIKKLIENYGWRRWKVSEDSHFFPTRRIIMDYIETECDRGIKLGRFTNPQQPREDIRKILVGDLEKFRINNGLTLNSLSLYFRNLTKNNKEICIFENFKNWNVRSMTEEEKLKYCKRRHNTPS
Test: PBM E-score (8-mer binding enrichment) (E-score (-0.5 to 0.5)); higher = stronger / more preferred TF binding; most listed sequences are background and not binding sites
Conditions: protein concentration: 100 nM; construct: GST-full length
Description: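 Universal 'all 10-mer' protein binding microarrays (Agilent AMADID 015681) probed with GST-tagged S. cerevisiae TFs (full-length or DBD) made by in vitro transcription/translation (PURExpress), about 100-200 nM. Bound TF was detected with fluorescent anti-GST. Each ungapped 8-mer (which stands for itself and its reverse complement) is scored by the PBM enrichment score (E-score), a modified Wilcoxon-Mann-Whitney statistic from -0.5 to +0.5, computed with the Universal PBM Analysis Suite. Scale: above 0.35 generally sequence-specific binding.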

| Sequence | PBM E-score |
| --- | --- |
| ACAATTTG | -0.0159 |
| AAACTGTA | 0.136 |
| GGTGGGGA | 0.345 |
| GCATAATA | 0.155 |
| AGGACGGA | -0.118 |
| AAGCAGGG | 0.00962 |
| AAACCGAG | -0.291 |
| ATGACACG | -0.0887 |
| AGCGTCGC | -0.0102 |
| CCGGGCGA | -0.128 |
| ACTACAGC | -0.0966 |
| AAATATAA | 0.25 |
| CCACGAGG | 0.151 |
| CTGTCCAC | -0.0451 |
| TGTTGGAA | 0.217 |
| CATGCCCC | -0.183 |
| AGTACAAT | -0.121 |
| GCATGCGC | -0.233 |
| AGACTTGA | -0.0853 |
| CGTCTCCC | 0.0616 |
| AACACGCA | 0.248 |
| AGCGGGTA | 0.216 |
| TGTGCAAA | -0.0572 |
| CATATCTA | -0.037 |
| CCGAAATC | 0.116 |

| Sequence | PBM E-score |
| --- | --- |
| CGTCTTAC | -0.102 |
| CCCTTACG | -0.257 |
| GGCTCAAC | -0.0738 |
| ATCTGTTC | -0.123 |
| CTCGTAGC | -0.0915 |
| GGATTCTA | 0.151 |
| ATTGAGAC | 0.152 |
| CACTTTAG | 0.119 |
| GGATGTAA | 0.0119 |
| GGGCAGAA | -0.0553 |
| AGACGCAA | 0.153 |
| AAATAACG | 0.112 |
| GCAGAGGC | -0.0738 |
| CGGGCGAG | -0.165 |
| ATCGCCTG | -0.041 |
| GAGCGTGC | -0.1 |
| ATCGCAGG | -0.212 |
| AGCAGATC | -0.151 |
| ATATTTGC | -0.0121 |
| CAAGGAGG | 0.141 |
| ATGCCCCA | 0.0659 |
| CGACTAGC | -0.248 |
| AGACACGG | -0.0156 |
| CTGTCTTA | 0.0396 |
| AATCTTCT | 0.227 |

| Sequence | PBM E-score |
| --- | --- |
| AGAATCCG | 0.202 |
| TCGGGAGA | -0.129 |
| AACATCTG | 0.0139 |
| CTGCGAAG | -0.146 |
| AACAGAGC | -0.2 |
| ATAGACGC | 0.377 |
| CCGCTGCA | -0.012 |
| ATCAGGAA | 0.236 |
| CTGTGACA | 0.035 |
| AGCCGAGA | 0.0196 |
| GGCACCCC | 0.322 |
| CGCGCAAG | 0.045 |
| TCCTCAGA | -0.109 |
| CCTCTGAC | -0.0208 |
| CTAAGTTA | 0.00202 |
| AAGATCAT | -0.0156 |
| CGAGCCAC | -0.116 |
| CAACAACC | -0.0888 |
| ACGGTGTG | -0.27 |
| ACAGAAGA | 0.0874 |
| GTACGCTA | -0.0435 |
| CCACAAAG | 0.16 |
| CCGAATAA | 0.188 |
| ACCCACAT | 0.123 |
| ACATTTTG | -0.143 |

| Sequence | PBM E-score |
| --- | --- |
| ACCGCGAG | -0.181 |
| TTAGTAAA | 0.212 |
| GACTAGCC | -0.0549 |
| ATTGATGA | 0.0698 |
| CGGCCCAA | 0.023 |
| CGGAACCA | 0.114 |
| AAGTAGGC | 0.104 |
| AGATGCCG | 0.273 |
| AGGGGATG | 0.245 |
| ACGATGGA | -0.0284 |
| ACACTAGA | 0.0197 |
| CGGATATC | -0.125 |
| ATAGTCGA | -0.0555 |
| AGCATAGG | -0.208 |
| ACAACTAT | -0.0862 |
| CATCTTAC | 0.0945 |
| TCTATAAA | -0.0626 |
| CCCATGCA | -0.027 |
| CCCCAGTC | -0.0316 |
| CAGCAATA | 0.0248 |
| AAGCTAGG | 0.0368 |
| GCTATAGC | -0.0133 |
| GCCATTAC | -0.0129 |
| CAGGCCCC | 0.0973 |
| CCAATATA | 0.215 |

| Sequence | PBM E-score |
| --- | --- |
| CATTCCGG | 0.0685 |
| TTCACGAA | 0.0842 |
| ATGGCTTA | 0.0216 |
| ACCTATCG | 0.213 |
| TACTTTAA | 0.087 |
| ACAAGGGG | -0.0971 |
| AGGGCTTC | 0.339 |
| GGCCGATA | -0.0677 |
| ATCAAGAT | -0.00904 |
| CGTCTTGC | -0.0494 |
| GATTTAAA | -0.00595 |
| AATAAGCT | -0.017 |
| ACCACCAT | 0.0943 |
| GCCCTTTA | -0.0115 |
| GCTTGTTA | -0.157 |
| CGGAACGA | 0.0962 |
| GTCTAACA | 0.0607 |
| GTCTACGA | -0.1 |
| AGTTGTCC | -0.163 |
| ATTGAGTC | -0.161 |
| AAATTGCA | 0.0808 |
| CCCGGTTC | 0.0738 |
| CACGTTCA | -0.0908 |
| CATCTATC | -0.0245 |
| AGTAGGTG | -0.0321 |

| Sequence | PBM E-score |
| --- | --- |
| TCGGGACA | -0.0131 |
| GACCCTGA | 0.0473 |
| AAACCGCA | -0.0451 |
| TGCAGAAA | 0.164 |
| GCGCGATA | 0.14 |
| AGGACAAA | -0.0377 |
| ACGCTTCA | -0.0408 |
| ATCTTCAC | 0.136 |
| GATTCAGA | 0.0913 |
| CCCTACAG | -0.197 |
| AAACCCGT | -0.0538 |
| CCGGCTTA | -0.0254 |
| CTCTCCAG | -0.118 |
| GACCGCTC | -0.183 |
| ACGGTGTC | -0.168 |
| ACAGCGGC | 0.137 |
| CGATCTGA | -0.0839 |
| AGCTCCCC | -0.124 |
| ACATATGT | -0.13 |
| CGACTCGC | -0.123 |
| GATTAGTA | 0.0915 |
| AAGATATT | 0.125 |
| GTATGTTA | -0.0616 |
| AGAATCCA | 0.249 |
| ACCTCCGG | 0.0364 |

| Sequence | PBM E-score |
| --- | --- |
| GAGAATTA | 0.0982 |
| CCAACGAC | -0.0882 |
| ACCAGACC | -0.0312 |
| ATAACGAC | -0.0254 |
| GGGGAATA | -0.0429 |
| TAAAACAA | -0.0081 |
| GATTAATA | 0.154 |
| CGATAAAC | -0.269 |
| GTCTCAGA | -0.0978 |
| CGCTATAC | -0.182 |
| GCGTCAGC | -0.152 |
| GCTTGCCC | -0.164 |
| ATGTTTTG | -0.0384 |
| CAGTACGG | -0.115 |
| AGGCTACC | 0.0739 |
| CAAACGTA | -0.141 |
| ACTGACCT | -0.211 |
| CTCTATCA | -0.178 |
| GATTGGGC | -0.08 |
| GGAAAACA | -0.113 |
| GTACCGTA | 0.0724 |
| AGGGTTCA | -0.118 |
